Laboratory results from the antibiotic and cytotoxicity screens of Wong et al. (2023).
The list shows a part of the results.

The molecules below were run on S. aureus RN4220 (assay: growth inhibition call (relative growth <= 0.2)). Conditions: 50 µM.
With `C[C@@H]1CN([C@H](C)CO)C(=O)Cc2cc(NC(=O)Cc3cn(C)c4ccccc34)ccc2O[C@H]1CN(C)Cc1ccc(C(F)(F)F)cc1` the growth inhibition call was “inactive”. `CC1(C)OC2COC3(COS(N)(=O)=O)OC(C)(C)OC3C2O1` (configuration not stated) was tested, and the growth inhibition call was “inactive”. With `COc1ccc(NC(=O)N(C)C[C@H]2OCCCC[C@H](C)Oc3ccc(NC(=O)CCC(F)(F)F)cc3C(=O)N([C@H](C)CO)C[C@@H]2C)cc1` the growth inhibition call was “inactive”. In the case of `CCC(=O)OC1C2CC3=C4CC(=O)OC(c5ccoc5)C4(C)CCC3C(C)(C2=O)C(CC(=O)OC)C1(C)C` (configuration not stated), the growth inhibition call is reported as “inactive”. In the case of `C[C@@H]1CN([C@H](C)CO)C(=O)Cc2cc(NC(=O)Nc3cccc4ccccc34)ccc2O[C@@H]1CN(C)Cc1ccccc1`, the growth inhibition call is reported as “inactive”. In the case of `C[C@H](CO)N1C[C@H](C)[C@@H](CN(C)Cc2ccc(C(F)(F)F)cc2)Oc2ccc(NC(=O)Cc3ccccc3)cc2C1=O`, the growth inhibition call is reported as “inactive”. For `CC1(N)CCN(c2cnc(-c3cccc(Cl)c3Cl)c(N)n2)CC1`, the growth inhibition call was “inactive”. In the case of `Cc1noc(C)c1S(=O)(=O)Nc1ccc2c(c1)C(=O)N([C@@H](C)CO)C[C@@H](C)[C@@H](CN(C)Cc1ccccc1)O2`, the growth inhibition call is reported as “inactive”. For `C[C@@H]1CCCCO[C@@H](CN(C)CC2CCCCC2)[C@H](C)CN([C@@H](C)CO)C(=O)c2cc(NS(=O)(=O)c3ccc(F)cc3)ccc2O1`, the growth inhibition call was “inactive”. `[N-]=[N+]=NCCOCCNC(=O)CCCOc1ccc(CS(=O)c2nnc(-c3ccc(F)cc3)o2)nc1` (configuration not stated) was tested, and the growth inhibition call was “active”. In the case of `C[C@@H]1CN([C@H](C)CO)C(=O)c2cccc(NS(C)(=O)=O)c2O[C@H]1CN(C)Cc1ccc(C(F)(F)F)cc1`, the growth inhibition call is reported as “inactive”. In the case of `C[C@H](NC(=O)N(C)C[C@@H]1OCc2ccccc2-c2c(n(C)c3ccccc23)C(=O)N([C@H](C)CO)C[C@H]1C)c1ccccc1`, the growth inhibition call is reported as “inactive”. `O=C(C[C@H]1NC(=O)NC1=O)NCc1[nH]nc2c1CCC2` was tested, and the growth inhibition call was “inactive”. `Cc1ccc(S(=O)(=O)N(C)C[C@@H]2Oc3ccc(NC(=O)Nc4ccc(C(F)(F)F)cc4)cc3CC(=O)N([C@H](C)CO)C[C@H]2C)cc1` was tested, and the growth inhibition call was “inactive”. With `C[C@@H]1CN([C@@H](C)CO)C(=O)Cc2cc(NS(C)(=O)=O)ccc2O[C@H]1CN(C)S(=O)(=O)c1cccs1` the growth inhibition call was “inactive”. `C[C@H](CO)N1C[C@H](C)[C@@H](CN(C)Cc2ccncc2)OCCCC[C@H](C)Oc2ccc(NC(=O)Cc3ccccc3)cc2C1=O` was tested, and the growth inhibition call was “inactive”. In the case of `NC(=O)C[C@H]1Nc2ccccc2NC1=O`, the growth inhibition call is reported as “inactive”. For `CO[C@@H]1CN(C)C(=O)c2ccc(NS(=O)(=O)CC(F)(F)F)cc2OC[C@@H](C)N(C(=O)c2ccc3c(c2)OCO3)C[C@H]1C`, the growth inhibition call was “inactive”. In the case of `C[C@@H]1CC[C@@]2(OC1)O[C@H]1C[C@H]3[C@H]4CC=C5C[C@@H](O[C@@H]6O[C@H](CO)[C@@H](O[C@@H]7O[C@@H](C)[C@H](O)[C@@H](O)[C@H]7O[C@@H]7O[C@@H](C)[C@H](O)[C@@H](O)[C@H]7O)[C@H](O)[C@H]6O)CC[C@]5(C)[C@@H]4CC[C@]3(C)[C@H]1[C@@H]2C`, the growth inhibition call is reported as “inactive”. For `C=CCNC(=O)[C@@H]1[C@H]2C(=O)O[C@H](c3ccccc3)[C@H](c3ccccc3)N2[C@H](c2ccc(OCCO)cc2)[C@@]12C(=O)Nc1ccc(C#CC3(O)CCCCCC3)cc12`, the growth inhibition call was “inactive”. With `Cc1noc(C)c1NC(=O)N(C)C[C@H]1Oc2c(NC(=O)C3CC3)cccc2C(=O)N([C@@H](C)CO)C[C@H]1C` the growth inhibition call was “inactive”. With `C[C@H](CO)N1C[C@H](C)[C@H](CN(C)S(=O)(=O)c2cn(C)cn2)Oc2ccc(NC(=O)Nc3ccc(F)cc3)cc2C1=O` the growth inhibition call was “inactive”. For `C[C@@H]1CCCCO[C@H](CN(C)S(=O)(=O)c2cccs2)[C@H](C)CN([C@@H](C)CO)C(=O)c2cc(NC(=O)CCC(F)(F)F)ccc2O1`, the growth inhibition call was “inactive”. `Cc1ccc(S(=O)(=O)N(C)C[C@@H]2Oc3ccc(NC(=O)C4CC4)cc3CC(=O)N([C@H](C)CO)C[C@@H]2C)cc1` was tested, and the growth inhibition call was “inactive”. In the case of `NC[C@@H]1CCCO1`, the growth inhibition call is reported as “inactive”. With `COc1ccc(NC(=O)N(C)C[C@H]2OCc3ccccc3-c3c(n(C)c4ccccc34)C(=O)N([C@H](C)CO)C[C@H]2C)cc1` the growth inhibition call was “inactive”. For `Cc1ccc(S(=O)(=O)N(C)C[C@H]2OCCCC[C@@H](C)Oc3ccc(NC(=O)Nc4c(C)noc4C)cc3C(=O)N([C@@H](C)CO)C[C@H]2C)cc1`, the growth inhibition call was “inactive”.
